Experimental data published in PubChem BioAssay AID1508649 (National Center for Advancing Translational Sciences (NCATS), 2021).
Hit rate of the full screen: of about 43,000 compounds, about 830 (1.9%) were called active. Inconclusive results, whose numbers are uncertain, are shown with a selection of clear calls. The calls were made as follows: active = clear falling dose curves in both reporters; inconclusive = both reporters move, but less clearly or upward; inactive = either reporter flat; the % is the NLuc reporter signal. No potency is given beside an inconclusive call; the fits are too rough.

Assay: Cell-based coincidence reporter assay to measure PMP22 gene transcription in S16 Pmp22-F2sN cells - Primary screen
Settings: S16 Pmp22-F2sN Schwann cells (luciferase reporters placed in the Pmp22 gene), FLuc/NLuc coincidence luminescence, 24 h; measured here: NLuc reporter readout, at 57.5 µM (top of the series); activity change, negative = inhibition: at the top concentration
Text: Assay Provider: Jim Inglese Ph.D. National Center for Advancing Translational Science, National Institutes of Health, Rockville, MD CMT is a heterogeneous group of neurological disorders that affect approximately 1 in 2,500 people. In particular, the most common form of CMT, CMT1A is genetically linked to the duplication of the PMP22 gene which leads to Schwann cell overexpression, thus manifesting itself as a typical case of dose-sensitive diseases. To identify small molecule compounds that can mediate the expression of PMP22 we developed a phenotypic assay screening strategy by utilizing genome editing techniques to construct Schwann cell lines containing novel reporter technology to monitor the transcriptional or translational regulation of PMP22. For high sensitivity we use a bioluminescent reporter system embedded in the 3' UTR of the PMP22 gene (S16(c9) Pmp22-F2sN) to identify compounds that inhibit gene expression. […] We can further discriminate the effect of all transcriptionally active molecules on PMP22 translation or stability with an assay that incorporates a short NLuc peptide (HiBiT) at the C-terminus of expressed PMP22 (S16(f8) PMP22-HiBiT) allowing alpha complementation and luminescence detection of membrane-associated PMP22 protein. These assays were screened against the NCATS Sytravon Library Collection. Miniaturization of these assays to 1536-well plate format for quantitative high throughput screening (qHTS) yielded rich data sets immediately from the qHTS assay (S16(c9) Pmp22-F2sN), when compared with data from a cell viability assay (Cell TiterGlo) to identify compounds that decreased the output signals through cellular toxicity to streamline the selection process of actives for subsequent characterization using the HiBiT assay (S16(f8) PMP22-HiBiT).
Cell-based coincidence reporter assay to measure PMP22 gene transcription in S16 Pmp22-F2sN cells PROTOCOL TABLE (format as described by Inglese J, Shamu CE and Guy RK. 2007) SEQUENCE No. (e.g., 1, 2, 3, etc.); […] (e.g., Cells, Incubation, Reagent, etc.); VALUE and DESCRIPTION. 1. Cells. Add 500-1,000 cells in 4 uL in growth media (DMEM High Glucose, No Phenol Red media + 10% heat-inactivated FBS + 1% Pen/Strep supplemented media) per well into Greiner 1536-well white/solid bottom high base, TC-treated plates. 2. Compounds. Library compounds and controls added at 23nL per well, transferred by Pin Tool. 3. Incubation. Incubate plates at 37C, 5% CO2, 95% RH for 24 h. 4. Reagent. Add 3.5uL Nano-Glo Dual-Luciferase Reporter Assay System reagent 1: Lysis and FLuc reagent per well of Greiner 1536-well plates. 5. Incubation. Incubate plates at room temperature for 10 min., protect from light. 6. Detector. FLuc luminescence measured using CCD-based camera (Viewlux). 7. Reagent. Add 3.5uL Nano-Glo Dual-Luciferase Reporter Assay System reagent 2: Stop&Glo reagent per well of Greiner 1536-well plates. 8. Incubation. Incubate plates at room temperature for 10 min., protect from light. 9. Detector. NLuc luminescence measured using CCD-based camera (Viewlux). NOTES (numbers refer to Sequence numbers above; values are from representative experiments) 6. Luminescence Read #1 (FLuc): Clear filter; Exposure = 10 sec, Gain = High, Speed = Slow, Binning = 2X 9. Luminescence Read #2 (NLuc): Clear filter; Exposure = 1 sec, Gain = High, Speed = Slow, Binning = 2X REFERENCES: 1. Inglese J, Shamu CE and Guy RK, Reporting data from high throughput screening of small molecule libraries, Nature Chemical Biology, 2007, 3(8): 438-441. doi.org/10.1038/nchembio0807-438 2. Yasgar A, Shinn P, Jadhav A, Auld DS, Michael S, Zheng W, Austin CP, Inglese J and Simeonov A, Compound Management for Quantitative High-Throughput Screening. J. Assoc. Lab. Auto., 2008, 13: 79-89. doi: 10.1016/j.jala.2007.12.004
% is scaled to controls: 0 for no effect and ±100 for the full control effect; potency is read from the fitted curve at half-maximal effect; tags tell the direction and shape of the fitted curve.

Row | SMILES | Potency | activity change, negative = inhibition
1 | CCn1nc(C)c2c(-c3ccccc3)cc(=O)n(C(C)C(=O)Nc3ccc(OC)c(OC)c3)c21 (stereo not given) | inconclusive [phenotype inactive, single point] | 
2 | CC1CCN(S(=O)(=O)c2ccc3nc(NCc4ccc(N(C)C)cc4)ccc3c2)CC1 | inconclusive [phenotype inactive, partial curve, poor fit] | 
3 | O=C(NCCSc1c[nH]c2ccccc12)c1ccc(Cl)cc1 |  | inactive: -3.06%
4 | CCc1ccc(C(=O)c2cn(CC(=O)NCCc3ccccc3)c3nc(C)ccc3c2=O)cc1 | inconclusive [phenotype inactive, single point] | 
5 | COc1ccc(-c2nn(C)c3sc(C(=O)NCCN(C)C)cc23)cc1OC | inconclusive [phenotype inactive, partial curve] | 
6 | O=C(NCCc1ccccc1)c1c[nH]c2ccc(S(=O)(=O)Nc3ccc(F)cc3F)cc2c1=O |  | inactive: -34%
7 | CCOC(=O)c1ccccc1NC(=O)CSc1nnc(CC)n2c1cc1occc12 | inconclusive [phenotype inactive, single point] | 
8 | COc1ccc(OCC(=O)NCc2ccc3c(c2)CCN3C(=O)c2ccc(F)cc2)cc1 | inconclusive [phenotype inactive, single point] | 
9 | CC(=O)N1c2ccc(S(=O)(=O)NCC3CCC(C(=O)Nc4cc(C)ccc4C)CC3)cc2CC1C (stereo not given) | inconclusive [phenotype inactive, partial curve] | 
10 | CC(=O)Nc1ccc2nc(SCCOc3cc(C)cc(C)c3)sc2c1 | inconclusive [phenotype inactive, single point] | 
11 | O=C(NCCc1nc2ccccc2n1Cc1ccc(Cl)cc1Cl)c1ccco1 | inconclusive [phenotype inactive, single point] | 
12 | Cc1ccccc1-c1noc(-c2ccc(N3CCOCC3)c([N+](=O)[O-])c2)n1 |  | inactive: -13.1%
13 | Cc1ccc(-n2c(=O)c3c(cnn3C)n(Cc3ccccc3F)c2=O)cc1 | inconclusive [phenotype inactive, partial curve, poor fit] | 
14 | Cc1c(-c2ccc(Cl)cc2)c(=O)oc2ccc(OC(=O)N3CCOCC3)cc12 | inconclusive [phenotype inactive, single point] | 
15 | CC(C)(C)c1ccc(-c2nc(SCC(=O)Nc3ccc(Cl)cc3)[nH]c(=O)c2C#N)cc1 | inconclusive [phenotype inactive, partial curve] | 
16 | CCN(CCCNC(=O)c1cc2c(Cl)nc3ccccc3c2s1)Cc1ccccc1 | inconclusive [phenotype inactive, partial curve] | 
17 | CCCN(C(=O)CCc1nc(-c2ccc(OC)cc2)no1)c1ccccc1F | inconclusive [phenotype inactive, single point] | 
18 | Cn1c(=O)oc2cc(S(=O)(=O)N3CCC(C(=O)Nc4ccc(F)c(Cl)c4)CC3)ccc21 | inconclusive [phenotype inactive, single point] | 

Row | SMILES | Potency | activity change, negative = inhibition
19 | CCC(=O)N1CCc2cc(Br)cc(S(=O)(=O)N3CCCC(C(=O)Nc4cccc(F)c4)C3)c21 (stereo not given) | inconclusive [phenotype inactive, single point] | 
20 | Cc1cccc(Cc2c(C)nc3nc(SCC(=O)NCc4ccccc4)nn3c2C)c1 | inconclusive [phenotype inactive, partial curve, poor fit] | 
21 | Cc1ccccc1C(=O)Oc1c(Sc2ccccc2)c(C)nn1C(C)(C)C | inconclusive [phenotype inactive, single point] | 
22 | O=S(=O)(NCC(c1ccccc1)N1CCc2ccccc21)c1ccc(Cl)cc1 (stereo not given) | inconclusive [phenotype inactive, single point] | 
23 | Cc1ccc(OCCn2c(C3CC(=O)N(Cc4ccc(F)cc4)C3)nc3ccccc32)c(C)c1 (stereo not given) | inconclusive [phenotype inactive, partial curve] | 
24 | Cc1cccc(-n2ncc3c(NNC(=O)c4ccccc4Cl)ncnc32)c1 | inconclusive [phenotype inactive, single point] | 
25 | O=C(NCc1cccc(Cl)c1)c1cnc(N2CCOCC2)c2ccccc12 |  | inactive: -26.1%
26 | COc1ccc(NC(=O)c2ccc(NC(=O)CCS(=O)(=O)c3cccs3)cc2)cc1Cl | inconclusive [phenotype inactive, single point] | 
27 | Cc1ccc(C(=O)Nc2cc(-c3cn4cccnc4n3)ccc2C)cc1C | inconclusive [phenotype inactive, single point] | 
28 | COc1cccc(NC(=O)Cn2c(=O)n(Cc3ccc(F)cc3)c(=O)c3sc4ccccc4c32)c1 | inconclusive [phenotype inactive, partial curve, poor fit] | 
29 | CCOc1ccc(NC(=O)c2nc(S(=O)(=O)Cc3ccccc3F)ncc2Cl)cc1 | active: 1.34 µM | 
30 | Cc1cccc(NC(=O)Cn2c(=O)n(CC3CCC(C(=O)NCCc4ccccc4)CC3)c(=O)c3ccccc32)c1 (stereo not given) | inconclusive [phenotype inactive, single point] | 
31 | Cc1cccc2nc(-c3ccccn3)c(Nc3ccc(F)cc3)n12 | active: 12.7 µM | 
32 | COCCCNC(=O)c1oc2c(c1C)-c1nn(Cc3ccccc3Cl)cc1CC2 | inconclusive [phenotype inactive, single point] | 
33 | COc1ccc(NC(=O)C(=O)NCCc2csc(-c3ccc(Cl)cc3)n2)cc1OC | inconclusive [phenotype inactive, single point] | 
34 | COc1ccc(-c2ccc(NS(=O)(=O)c3ccc(OC)c(OC)c3)cc2)nn1 | inconclusive [phenotype inactive, single point] | 
35 | CCc1cnc2c(c1SCC(=O)c1ccccc1)c(=O)n(C)c(=O)n2C | inconclusive [phenotype inactive, single point] | 
